Laboratory results from the supplement of paper PMC10126150.
Values marked as one replicate rest on one cluster of the flow cell; about a third of the high ones do not repeat.

System: ATP
Assay: switch fluorescence ratio, 500 uM ATP over buffer (Cy3 cluster intensity, sum of 5 cycles each) (fold (ratio)); higher = stronger signal-on switching upon ATP binding; sequences stand for … in TCGTCGGCAGCGTCAGATGTGTATAAGAGACAGTTTTTTTTTTTTTTTTTTTTTTTTT…TC
Details: aptamer strand: ATP DNA aptamer (quencher-CACCTGGGGGAGTATTGCGGAGGAAGG + anchor), 100 nM annealed; ATP concentration: 500 uM; one replicate
Summary of the method: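 Per cluster, summed Cy3 intensity from the target cycles was divided by that from the buffer cycles to give the fluorescence ratio, then averaged per switch-domain sequence. Clusters outside 100-1000 RFU were excluded. The Cy3-labelled switching-strand clusters, on a modified Illumina MiSeq flow-cell, were annealed to 100 nM quencher-labelled ATP aptamer and imaged in selection buffer, then after 15 min with 500 uM ATP at 22 °C, for five cycles with NaOH stripping and re-annealing between them.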
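Also: ATP exposure 15 min at 22 °C before imaging.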

| Sequence | switch fluorescence ratio |
| --- | --- |
| CCGTACAGAT | 1.19 |
| TTACCGACTT | 1.1 |
| CAGAGTGCAG | 0.939 |
| TACCAAAATA | 1.05 |
| ATCCTGTTAG | 1.02 |
| GTCCAGCGCG | 1.07 |
| GGGGAGTAGA | 1 |
| TCAAGGTGCC | 1.06 |
| CATCAGCGAC | 5.98 |
| TACGAGGGGT | 1.03 |
| TTGTTCCTA | 0.97 |
| AAAATAGAAT | 1.04 |
| GTTAATATCG | 1.01 |
| GTGGGGTTCG | 0.971 |
| ACTTCTGGCC | 1.07 |
| TTCCGGCTGC | 1.17 |
| CGGTAGGGCA | 0.974 |
| TCGCGATGGT | 1.51 |
| TCTTGGAGTG | 0.971 |
| GAAAAGTAGA | 1.02 |
| CAGATACCCT | 1.1 |
| TGCTTAATAT | 0.989 |
| CGGGTCGGAG | 1.03 |
| TTTTCAGCGG | 1.03 |
| ATACGGTG | 1.02 |
| TCATACGGAT | 1.06 |

| Sequence | switch fluorescence ratio |
| --- | --- |
| CGTTCGTACA | 1.1 |
| ACCAATAGAT | 1 |
| GAGTGTCATT | 0.949 |
| GCACAAAAGA | 0.954 |
| TTATACGTTT | 1.14 |
| TAATTTAGGT | 1 |
| CTAGAAGGCC | 0.999 |
| TCCGGCTTTA | 1.09 |
| CTTGGGTCTT | 1 |
| TACTCCCCAC | 2.76 |
| TCCAACGTGC | 1.91 |
| TCCTTTCACG | 1.15 |
| CATAAGGCTT | 0.948 |
| GACCCTTTGC | 1.01 |
| AAGAGCCGAG | 1.01 |
| GCCCCTCGAT | 1.05 |
| CGTAATAGGT | 1.06 |
| AGGTCCAAGT | 1.05 |
| TAATATGAAC | 1.04 |
| CTGGGTTTTA | 0.995 |
| TTGCCCTTTT | 1.01 |
| ATAGTTAGAG | 0.99 |
| CACATTTCAC | 1.01 |
| ACACGAAAGG | 1.05 |
| AGGCGATATC | 0.989 |
| AAGCTCTTCA | 1.03 |

| Sequence | switch fluorescence ratio |
| --- | --- |
| ACCAACAAT | 1.11 |
| TAGTGGCTAT | 0.989 |
| CGGGCGAATC | 1.01 |
| TATAAGCCGG | 1.07 |
| AAAATCCCTC | 0.997 |
| TCCCATTGGT | 0.987 |
| CGGCCCGAGT | 1.58 |
| TTGAGTCGG | 0.991 |
| AGCTTAAATC | 1.05 |
| ATGGCGGTGG | 1.01 |
| GCTCGACGGT | 1 |
| ACCTAATCTG | 1.13 |
| TCTGAAACGA | 0.923 |
| TGTCAAGTCC | 1.04 |
| TCACTCGGAA | 1.08 |
| CATCCCCTAA | 1.17 |
| TCGAGTCGGG | 1.01 |
| TAGGGCCGTC | 1.02 |
| GGCTTTGTTG | 1.01 |
| ACTGGAAT | 0.978 |
| CAGTACGCAG | 1.05 |
| GTGTCGCCTT | 0.992 |
| GCGCTTGGCC | 0.994 |
| ATTATCTTCA | 1.03 |
| ATTTTCGTGC | 1.01 |
| TTCAGAATAG | 1.25 |

| Sequence | switch fluorescence ratio |
| --- | --- |
| ATTGAAGGCT | 0.989 |
| GGGATGCCTG | 1.1 |
| TGTTTGTCGT | 0.987 |
| TCTTTTTCG | 0.987 |
| GGGGCATCCA | 0.998 |
| TGTGCTCCGC | 1.35 |
| AGGGAAGCTG | 0.841 |
| TTTAAATACT | 1.25 |
| ATGAGTTCAT | 1.05 |
| TTGGGGTCTA | 1.01 |
| TAAAGGACGA | 1.04 |
| CGTGCTAGT | 0.961 |
| GGCCCATGAA | 1.05 |
| TACGGCTAA | 0.974 |
| GTCAACTGTT | 0.996 |
| ATGTGTCCGA | 1.02 |
| ATCGTATGAC | 1.11 |
| CATTAAGTAA | 1.02 |
| CCAGTACGTT | 1.04 |
| GTTTACTGTA | 1.02 |
| ATGGTCATGG | 1.04 |
| TGACATGCCG | 0.996 |
| GTGGAGGCGG | 0.989 |
| TCATTAGTAG | 0.98 |
| GTTGTTGGAC | 0.997 |
| TAGGAGTGTG | 1.25 |

| Sequence | switch fluorescence ratio |
| --- | --- |
| GCTGATGCCC | 1.11 |
| ACATCCGTCC | 1.3 |
| CGGGTGGAGA | 1.03 |
| TCAACATATA | 1.11 |
| TATAATTAGC | 0.984 |
| TATTGACTCG | 1.05 |
| CACGATGATG | 0.949 |
| AATGGCACGC | 1.09 |
| CTCTGCAGGA | 2.3 |
| GTATTACACG | 0.984 |
| TTAGATTTGA | 0.987 |
| ATCAGAGTTC | 0.988 |
| AACTCTGACG | 1.02 |
| TTCATGGTTC | 1.01 |
| ATTTAATTAG | 0.972 |
| TTAATGCTAC | 1.15 |
| TTACTGAAGT | 1.19 |
| TAAGTCAGCA | 1.05 |
| TACTGCTGT | 0.996 |
| GCCACAATCG | 1.07 |
| ATTGTGACAC | 0.958 |
| TTGGGCTCT | 0.977 |
| TCATGAATGA | 0.973 |
| GTTGGAGTT | 1.01 |
| TTCTGTTACC | 0.972 |
| TGTTTTGC | 1 |

| Sequence | switch fluorescence ratio |
| --- | --- |
| CCGACTTGTA | 1.32 |
| GGTGGATATT | 1 |
| CAACTGAATT | 0.985 |
| CGCATTGCAT | 1.07 |
| AACGGGTAGT | 0.994 |
| AGGTCTGCGC | 1.05 |
| CCTTTGTCTG | 0.958 |
| ACTGCTTGCA | 0.988 |
| TTTACTACCT | 1.43 |
| CTCTCTGT | 1.02 |
| AATGTACCTT | 1.2 |
| AGTTATCT | 0.991 |
| TCGGTTCATC | 0.974 |
| CCAGATTATA | 1.01 |
| GAGGAGAGCG | 1.02 |
| TCAGCGCACT | 1.16 |
| TCCCCCCTTT | 1.49 |
| TGAGTGGAGT | 0.962 |
| ATCCCATTTC | 1.04 |
| AAGTTGGGTC | 0.996 |
| CCAAGATTCC | 1.23 |
| TATTAGAATG | 0.998 |
| ACTGCAGACC | 1.18 |
| ACATCCTTTA | 1.01 |
| AGGGGTTAG | 0.99 |
| CTGAGGGAAG | 1.03 |

| Sequence | switch fluorescence ratio |
| --- | --- |
| CGTTCCTGGA | 0.978 |
| ACGGTGCATT | 1.09 |
| GTGGTGCGAG | 1.01 |
| ATCACCGTGT | 1.05 |
| GTGGGGGACC | 1.03 |
| ACGTACGCCA | 1.51 |
| CCTGTTTCGT | 0.954 |
| ACTCTCGCTG | 1.62 |
| ACGTTGCTCC | 1.95 |
| GTGACACTCA | 1.03 |
| ATTAAGTAGG | 1.02 |
| TTAGTTGCCT | 0.971 |
| TATTTTTCAA | 0.968 |
| AGTTTATATA | 1.02 |
| TCCTTTTCGT | 0.984 |
| GCGCAAAGTG | 1.03 |
| AGGATGTAT | 0.99 |
| ATAGAGGTCG | 1.07 |
| TTAAGCTTAC | 2.02 |
| CTTCCTCTTA | 2.03 |
| TCAAGCTAAG | 0.987 |
| TAGCAGAATG | 1.05 |
| CGGATAGGTG | 1.1 |
| ATGATCTTGG | 1.02 |
| GAGGCAGCAT | 1.32 |
| CTGATAGTTT | 0.99 |

| Sequence | switch fluorescence ratio |
| --- | --- |
| TTCTGCGGTC | 2.62 |
| GCCCGCGCGC | 1.1 |
| CCGCTCAAGG | 1.19 |
| TCAAAAAAGC | 0.967 |
| AAAGTTTAAA | 1.01 |
| AGGTGATGT | 0.994 |
| TCCAGAAAAG | 1.04 |
| CACATAATGC | 1.16 |
| CGCATCTACT | 3.64 |
| CACTAAGATT | 1.03 |
| CTAGATCCCT | 1.01 |
| TAGAAGCCCG | 1.02 |
| ATCCTTAATA | 1.01 |
| AAGTATCGTC | 0.957 |
| GAATGAATTT | 0.976 |
| CCACTAGCGT | 1.04 |
| AGGTCTCCAT | 0.999 |
| GTATGCAGGA | 0.999 |
| TGAGAAGAAG | 0.992 |
